In article PMC4336329 (PLoS ONE, 2015):
In all, about 310,000 compounds went through this assay and about 14,000 (4.5%) showed an effect of 50% or more. The effect is printed as a negative number. This is one part of the list.

Target: human ether-à-go-go-related gene (hERG) potassium channel (human, UniProt Q12809)
Experiment: primary screen, population patch clamp on CHO cells stably expressing hERG
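Further: peak tail current of the secondary pulse compared with the same well before compound.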

Sequence of human ether-à-go-go-related gene (hERG) potassium channel (Q12809 whole entry, looked up): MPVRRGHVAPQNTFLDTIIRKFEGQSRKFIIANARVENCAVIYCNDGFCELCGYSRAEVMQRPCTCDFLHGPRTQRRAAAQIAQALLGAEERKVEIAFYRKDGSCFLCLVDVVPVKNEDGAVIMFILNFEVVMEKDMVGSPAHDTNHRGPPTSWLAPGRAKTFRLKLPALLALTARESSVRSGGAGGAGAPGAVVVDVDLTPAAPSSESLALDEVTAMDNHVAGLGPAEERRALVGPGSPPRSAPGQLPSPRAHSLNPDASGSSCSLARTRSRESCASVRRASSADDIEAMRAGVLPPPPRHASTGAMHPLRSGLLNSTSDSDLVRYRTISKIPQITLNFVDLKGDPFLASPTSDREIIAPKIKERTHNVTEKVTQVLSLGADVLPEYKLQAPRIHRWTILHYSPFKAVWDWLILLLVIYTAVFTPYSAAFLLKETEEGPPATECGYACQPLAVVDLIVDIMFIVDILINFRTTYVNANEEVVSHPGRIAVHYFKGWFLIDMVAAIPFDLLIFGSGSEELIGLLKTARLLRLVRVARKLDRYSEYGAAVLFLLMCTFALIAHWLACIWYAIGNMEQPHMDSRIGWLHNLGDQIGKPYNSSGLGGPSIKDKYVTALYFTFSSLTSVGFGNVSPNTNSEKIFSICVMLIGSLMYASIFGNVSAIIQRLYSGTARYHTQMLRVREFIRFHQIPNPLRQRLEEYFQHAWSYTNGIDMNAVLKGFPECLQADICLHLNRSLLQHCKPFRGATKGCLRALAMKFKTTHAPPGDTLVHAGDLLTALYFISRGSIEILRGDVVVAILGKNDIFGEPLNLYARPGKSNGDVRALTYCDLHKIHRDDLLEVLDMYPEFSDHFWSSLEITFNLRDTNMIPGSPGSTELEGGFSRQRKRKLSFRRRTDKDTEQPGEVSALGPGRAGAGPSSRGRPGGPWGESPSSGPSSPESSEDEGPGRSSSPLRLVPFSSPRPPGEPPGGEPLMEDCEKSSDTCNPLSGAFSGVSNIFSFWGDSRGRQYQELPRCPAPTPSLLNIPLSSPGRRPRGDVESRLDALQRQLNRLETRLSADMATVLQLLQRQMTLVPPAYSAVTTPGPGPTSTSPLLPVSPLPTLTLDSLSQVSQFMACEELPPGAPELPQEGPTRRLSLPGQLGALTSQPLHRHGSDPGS

Structure (SMILES)	hERG current change (%, negative = inhibition) at 10uM [%]
COCCCn1c(=O)c2sccc2n(Cc2cccc(C)c2)c1=O	-6.4
CCOc1ccccc1NC(=O)NCc1cccnc1	10.8
CCCC(=O)N1CCc2[nH]c3ccccc3c2C1	1.29
O=C(Cn1cnc2ccccc2c1=O)NCCC(=O)N1CCN(c2ccccc2)CC1	-7.6
COc1cc(CN(C(=O)c2cccs2)C2CCS(=O)(=O)C2)cc(OC)c1OC (stereo not shown)	7.79
c1ccc(-c2ccc(CN3C[C@@H]4C(c5ccccc5)C5(c6cccnc6)CC4(C5)[C@H]3c3ccccc3)cc2)cc1 (stereo partly shown)	0.0971
COc1ccccc1CNC(=O)C1COc2ccccc2O1 (stereo not shown)	-15.1
COc1ccc(N2C(=O)NC(NC(=O)c3ccncc3)(C(F)(F)F)C2=O)cc1 (stereo not shown)	-12.5
COc1ccc(/C=N\NC(=O)/C(=C\Nc2nccc(C)n2)NC(=O)c2ccccc2)cc1	-7.26
Cc1ccc(C(=O)Oc2ccc(Cl)c3cccnc23)cc1[N+](=O)[O-]	15.2
CC1(C)CC(=O)C2=C(C1)NC(=O)NC2c1ccc(Cl)cc1 (stereo not shown)	17.3
CCN(C(=O)COC(=O)/C=C/c1ccccc1[N+](=O)[O-])C1CCS(=O)(=O)C1 (stereo not shown)	2.47
CC12CCC(=O)N1C(C(=O)NCc1ccccc1F)CS2 (stereo not shown)	6.23
Cc1ccc(-n2cc(C(=O)c3ccc(F)cc3)nn2)cc1Cl	13
CCc1cc2c(cc3c(=O)n(CC(=O)NCCCN4CCCCCC4)nc(CC)n32)s1	-72.7
Cc1cc(C)c2c(N)c(C(=O)Nc3ncc(C)s3)sc2n1	0.941
C=CCNC(=O)/C(=C\c1ccco1)NC(=O)c1ccco1	26
C/C(=N\NC(=S)Nc1cccc(C)c1)c1cccc(N)c1	2.53
C/C=C(\C)C(=O)OC(C)(C)[C@H]1Cc2cc3ccc(=O)oc3cc2O1	-23.2
O=C(O)CC/C(=C\c1cccc(NC(=O)c2ccccc2Cl)c1)c1nc2ccccc2s1	-2.23
O=Cc1sc(=O)n(Cc2cccc(C(=O)O)c2)c1Cl	8.41
CC(C)Oc1ccc(CCc2n[nH]c(=S)n2Cc2ccccc2)cc1	14.8

Structure (SMILES)	hERG current change (%, negative = inhibition) at 10uM [%]
OCC1(Cc2ccccc2)CCN(C2CCN(c3ccc(F)c(F)c3)CC2)CC1	-112
Cc1[nH]nc2c1C(c1ccsc1)C(C#N)=C(N)O2 (stereo not shown)	12.6
Cc1nnc(N2C(=O)C(O)=C(C(=O)c3ccco3)C2c2cccc3ccccc23)s1 (stereo not shown)	-0.387
CCOC(=O)CN(C)S(=O)(=O)c1ccc(-c2cc(C(=O)OC)sc2C(F)(F)F)cc1	2.27
Cc1ccc(/C=C2/SC(=S)N(CCCC(=O)Nc3cc([N+](=O)[O-])ccc3O)C2=O)cc1	13.1
O=C(Nc1cc(S(=O)(=O)N2CCCCC2)ccc1N1CCOCC1)c1cc(=O)[nH]c2ccccc12	10.7
Cc1noc(C)c1S(=O)(=O)N1CCCN(C(=O)/C=C/c2ccccc2F)CC1	-70.9
O=C1OC(Nc2ccc(F)cc2F)c2ccccc21 (stereo not shown)	1.38
Cc1ccc(-c2ccc(/C=N/n3cnnc3)o2)cc1Cl	-22.5
CNC(=S)N=Nc1c(O)[nH]c2ccccc12	2.34
Cc1ccccc1OCC(=O)O/N=C(\N)c1ccncc1	-2.52
Cc1cccc(C(=O)OCC(=O)NC(C)CCc2ccccc2)c1O (stereo not shown)	10
CC(CNc1ccc([N+](=O)[O-])cc1)NC(=O)c1ccccc1Br (stereo not shown)	-50.6
O=C(CSc1nc2c(cnn2-c2ccc(F)cc2)c(=O)[nH]1)N1CCOCC1	0.142
COc1cccc(/C=N/n2c(N)c(S(=O)(=O)c3cccs3)c3nc4ccccc4nc32)c1OC	10.5
O=C1CC(NS(=O)(=O)c2cccs2)CN1c1ccc(F)cc1 (stereo not shown)	4.25
CC(C)N(C)C(=O)c1ccc(OC2CCN(CCc3ccccc3)CC2)cc1	-40.8
CN1CCc2c(sc3nc(NN)n(-c4ccc(Cl)cc4)c(=O)c23)C1	14.6
CCNc1ccc(S(=O)(=O)N(C)C)cc1NCC(=O)Nc1ccc(F)c(Cl)c1	-4.33
CC1=CC(C)(C)NC(=S)N1c1ccccc1	13.6
CCc1ccccc1NC(=O)N1CCc2ccccc21	8.83
O=S(=O)(NC1CCCCCC1)c1ccc(Br)s1	-29.3

Structure (SMILES)	hERG current change (%, negative = inhibition) at 10uM [%]
CCCCC1=CC2=CC(=O)C(C)(OC(=O)CC)C(=O)C2=CN1C1CCCC1 (stereo not shown)	-49.4
CC(C)c1c(C(=O)N/N=C/c2ccsc2)nnn1-c1nonc1N	23.8
Cc1nn(-c2ccccc2)c(Cl)c1/C=N/NC(=O)c1ccn[nH]1	-5.12
CN(C)C1(CNC(=O)Nc2ccc(Cl)c(Cl)c2)CCCCC1	-50.1
COc1ccc2c(c1)C(SCC(=O)NCCc1ccccc1)CC(C)(C)O2 (stereo not shown)	-18.5
CC(C)C[C@H](NC(=O)N1CCn2c1nc1ccccc12)C(=O)N[C@@H](C(=O)O)c1ccccc1	-9.47
CSCCC(NS(=O)(=O)c1ccccc1F)C(=O)Nc1ccncc1 (stereo not shown)	-10.8
CC1CCCN(Cc2nc3c(c(=O)n(C)c(=O)n3C)n2CCc2ccccc2)C1 (stereo not shown)	1.9
CC(C)NC(=O)c1onc(CSc2ccc(F)cc2)c1C(=O)NC(C)C	1.14
CCN1CCN(C(=O)C2CCN(S(=O)(=O)c3ccc4c(c3)NC(=O)C(C)S4)CC2)CC1 (stereo not shown)	14.1
COc1ccc(OC)c(Nc2nnc(C)c(=O)[nH]2)c1	6.27
COc1ccc(S(=O)(=O)N2CCN(C)CC2)cc1	6.84
CCc1cccc(CC)c1N(COC)C(=O)Cn1cnc2ccccc21	-2.29
CC1CCCCN1C(=O)Cc1ccc(Cl)cc1 (stereo not shown)	-11.1
COc1cc(C(=O)Nc2cccc(-c3nc4ncccc4o3)c2C)cc(OC)c1OC	6.71
COC(=O)C1=CO[C@@H](O[C@@H]2O[C@H](CO)[C@@H](O)[C@H](O)[C@H]2O)C2C1C[C@H](O)[C@@H]2C (stereo partly shown)	17.8
Cc1csc(SCC(=O)NCc2ccccc2)n1	31.5
CNC(=O)c1c(NC(=O)C2=COCCO2)sc2c1CCCC2	2.86
O=C(CCS(=O)(=O)c1cccc2nsnc12)NCc1ccccc1	-1.13
CC(C)Sc1cc(N2CCCC2)nc(-c2ccc(F)cc2)n1	-2
CCOc1ccc(CCNC(=O)COC(=O)/C=C/c2ccc(OCC#N)c(OC)c2)cc1OCC	-9.35
O=C(CSc1nc(-c2ccccc2)c(-c2ccccc2)o1)Nc1nnc(-c2ccccc2)s1	13.5

Structure (SMILES)	hERG current change (%, negative = inhibition) at 10uM [%]
CCSc1nnc(NC(=O)CN2C(=O)C3CC=CCC3C2=O)s1 (stereo not shown)	30.6
COc1cccc(C=Nc2ccc3c(c2)CCC3)c1O	11.8
CC(=O)c1cccc(NC(=O)C(OC(=O)c2ccccc2NS(=O)(=O)c2cccs2)c2ccccc2)c1 (stereo not shown)	7.75
CN1CCN(Cc2cc(COCc3ccccc3)c3cccnc3c2O)CC1	-24.9
NC(=O)c1c(NC(=S)Nc2ccc(F)cc2)sc2c1CCCC2	21.9
Cc1ccccc1C(=O)c1cccn1CC(=O)NCc1ccccc1Cl	13.4
COCc1ccc(C(=O)Nc2ccc(C(=O)O)cc2)o1	-1.08
CCOC(=O)c1cccc(NC(=O)CCn2nnc3ccccc32)c1	-13.9
COc1ccc(CNC(=O)C(OC(=O)c2ccco2)c2ccccc2)cc1 (stereo not shown)	-19.4
N#C/C(=C\c1ccccc1O)C(=O)Nc1ccccn1	10.1
O=C(c1ccccc1)c1cccn1CC(=O)N1CCN(c2ccccc2)CC1	-9.33
Cc1ccc(S(=O)(=O)Cc2cc(-c3ccc(Cl)cc3)no2)cc1	15.7
COc1cc(OC)cc(-c2cc3nc(C)c(CCC(=O)O)c(=O)n3[nH]2)c1	-0.0544
COCCC(=O)N1CCC(Oc2ccc(C(=O)N3CCC(N(C)C)C3)cc2)CC1 (stereo not shown)	20.7
CN(C)CCOCCOc1ccc(Cl)cc1Br.O=C(O)C(=O)O	-42.6
CC(=O)N1c2ccc(S(=O)(=O)N3CCCCC3)cc2CC1C(=O)Nc1cccc(C)c1 (stereo not shown)	-1.17
COc1ccccc1C(=O)NC(=O)COC(=O)c1oc2ccccc2c1C	1.8
CCOc1ccc(N2CC(C(=O)NCCCN3CCOCC3)CC2=O)cc1 (stereo not shown)	-5.47
CCc1nnc(NC(=O)CSc2nnc(-c3ccccc3O)n2CC)s1	-7.99
O=C(NN=C1CCCCCCCCCCC1)c1cccnc1	19.8
CCOc1ccccc1NC(=O)CCc1nnc2ccc(N3CCC(C)CC3)nn12	-17.5
COC(=O)c1cc(S(=O)(=O)N2CCN(c3ccc(OC)cc3)CC2)cn1C	10.1
